Measured values reported in PubChem BioAssay AID1508624 (National Center for Advancing Translational Sciences (NCATS), 2021).
The whole screen tested about 48,000 compounds, of which about 120 (0.25%) were called active. Not shown: some 4% with an inconclusive outcome. Calls come from the whole dose curve; as a rule, active = well fitted activation curve with a large enough effect; inconclusive = small, poorly fitted or top-dose-only effect, or another doubt; inactive = no such curve, though single readings can be large or run the other way. The list shows a part of the results.

Test: Primary qHTS for Identification of Small Molecule Activators of Huntingtin-Antisense Promoter Activity; note: nearly all actives have a fitted effect of over 55% in size
Conditions: HEK293 HTT-AS promoter firefly luciferase reporter, 24 h; series mostly up to 57.5 µM; activity change, positive = activation: at the top concentration
In short: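 HEK293 Fluc reporter, 2,500 cells/well, 24 h pre-culture; cpds up to 57.5 uM final, 24 h 37 degrees C; Dual-Glo, 10 min RT; normalized vehicle = 0%, zero RLU = -100%.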

Activity change, positive = activation, inactive:
COc1ccc(S(=O)(=O)N2CCCCC2)cc1C(=O)NC1CCS(=O)(=O)C1 (stereo not given) 2.86%
Cc1ccc(C(=O)c2cn(Cc3ccccc3)c3c(F)cc(F)cc3c2=O)cc1 -22.3%
CCS(=O)(=O)N1CCC2(CC1)OC(=O)C(C)=C2C(=O)NCc1ccc(OC)c(OC)c1 -2.48%
COc1ccc(N2CCN(C(=O)c3cn(C)c4ccc(S(=O)(=O)N5CCOCC5)cc4c3=O)CC2)cc1 -14.7% [at 11.5 µM, percent change from vehicle, -100% = no light]
CCC1Oc2ccccc2N(CC(=O)NCc2ccccc2)C1=O (stereo not given) 20.3%
Cn1c(=O)c(=O)n(C)c2cc(N3CCCC3)c(NC(=O)c3ccccc3Cl)cc21 -7.2%
COc1ccc2nc(N(Cc3cccnc3)C(=O)c3ccc(Cl)cc3)sc2c1 -22.2%
CCS(=O)(=O)N1CCc2cc(C(=O)Nc3cc(C)cc(C)c3)ccc21 12.9%
COC(=O)c1ccc2c(c1)N(CC(=O)Nc1ccc(C)c(C)c1)C(=O)c1ccccc1S2 0.451%
CN1CCC(CNc2ccc3ncc(-c4cccc(OC(F)(F)F)c4)n3n2)CC1 -29.6%
Cc1ccc(C)c(N2CCN(C(=O)NCc3noc4ccccc34)CC2)c1 -23.9%
Cc1cc2oc(C(=O)Nc3sc4c(c3C(=O)NCC3CCCO3)CCCC4)cc(=O)c2cc1C (stereo not given) -3.23%
Cn1c(=O)c2c(-c3ccc(Cl)cc3)ccnc2n(C)c1=O 2.13%
COc1ccc(OC)c(CCNc2nc3cc(OC)c(OC)cc3c3nc(-c4cccnc4)nn23)c1 -7.44%
CCCCN(CC)CCNC(=O)CN1C(=O)COc2ccc(S(=O)(=O)N3CCOCC3)cc21 -8.78%
O=S(=O)(NCC(c1ccco1)N1CCN(c2ccc(F)cc2)CC1)c1cc(F)ccc1F (stereo not given) -38.4%
COc1ccc(CCNC(=O)c2ccc3[nH]c(C)c(C)c3c2)cc1OC 2.31%
Cc1ccc(NC(=O)Cn2c(=O)n(CC(=O)NCCc3ccccc3)c(=O)c3ccccc32)cc1 -4.96%
CCc1ccccc1NC(=O)Cn1nnc(C(=O)NCc2cccc(OC)c2)c1N -21%
COc1ccc(CC(=O)Nc2nnc3n2CCS3)cc1OC -16.2%
COc1ccc(CNC(=O)CCc2c(C)nc3c4cccnc4nn3c2C)cc1 -16.3%
COc1ccc(C)cc1-n1c(SCC(=O)NCc2ccco2)nc2c([nH]c3ccccc32)c1=O -28.7%
CCCCN(CC)CCCNC(=O)c1nn(-c2ccc(OC)cc2)c(=O)c2c1c1ccccc1n2C -6.73%
O=C(Nc1ncc(Cc2ccccc2Cl)s1)c1ccc2c(c1)CC(c1ccccc1)OC2=O (stereo not given) -24.2%
CCCCN(CC)CCCNC(=O)c1sc2nc3n(c(=O)c2c1C)CCCCC3 3.72%
